Test results from the supplement of paper PMC8728848.
This is one part of the list.

Key:
Assay in all cases: glycan array binding signal (z-score within array); higher = stronger binding
Details in all cases: glycan notation: IUPAC condensed, linker removed
[1] = target: Gal3S(b1-3)GalNAc
In short: (§1)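 Glycan array binding is given as a within-array Z-score, which can be read as non-binding when negative. The arrays, 3228 of them, came from the Consortium for Functional Glycomics database and were retained only where the protein sequence was available. Z-scores were averaged across arrays of the same protein sequence at different concentrations or buffers and across linkers.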

[2] = target: Gal3S(b1-3)GlcNAc
In short: as §1

[3] = target: Gal3S(b1-3)[Fuc(a1-4)]GlcNAc
In short: as §1

[4] = target: Gal3S(b1-4)Glc
In short: as §1

[5] = target: Gal3S(b1-4)Glc6S
In short: as §1

[6] = target: Gal3S(b1-4)GlcNAc
In short: as §1

[7] = target: Gal3S(b1-4)GlcNAc6S
In short: as §1

[8] = target: Gal3S(b1-4)[Fuc(a1-3)]Glc
In short: as §1

[9] = target: Gal3S(b1-4)[Fuc(a1-3)]Glc6S
In short: as §1

[10] = target: Gal3S(b1-4)[Fuc(a1-3)]GlcNAc
In short: as §1

[11] = target: Gal3S(b1-4)[Fuc(a1-3)]GlcNAc6S
In short: as §1

[12] = target: Gal3S4S(b1-4)GlcNAc
In short: as §1

[13] = target: Gal3S6S(b1-4)GlcNAc
In short: as §1

[14] = target: Gal3S6S(b1-4)GlcNAc6S
In short: as §1

[15] = target: Gal4S(b1-4)GlcNAc
In short: as §1

[16] = target: Gal4S6S(b1-4)GlcNAc
In short: as §1

[17] = target: Gal6P(b1-4)GlcNAc
In short: as §1

[18] = target: Gal6S(b1-3)GlcNAc
In short: as §1

[19] = target: Gal6S(b1-3)GlcNAc6S
In short: as §1

[20] = target: Gal6S(b1-4)Glc
In short: as §1

[21] = target: Gal6S(b1-4)Glc6S
In short: as §1

[22] = target: Gal6S(b1-4)GlcNAc
In short: as §1

[23] = target: Gal6S(b1-4)GlcNAc6S
In short: as §1

[24] = target: GalNAc(a1-3)Gal
In short: as §1

[25] = target: GalNAc(a1-3)GalNAc
In short: as §1

[26] = target: GalNAc(a1-3)GalNAc(a1-3)Gal(a1-4)Gal(b1-4)GlcNAc
In short: as §1

[27] = target: GalNAc(a1-3)GalNAc(b1-3)Gal(a1-4)Gal(b1-4)Glc
In short: as §1

[28] = target: GalNAc(b1-3)Gal
In short: as §1

[29] = target: GalNAc(b1-3)Gal(a1-4)Gal(b1-4)GlcNAc
In short: as §1

[30] = target: GalNAc(b1-3)Gal(a1-4)Gal(b1-4)GlcNAc(b1-3)Gal(b1-4)Glc
In short: as §1

[31] = target: GalNAc(b1-3)Gal(a1-6)Gal(b1-4)Glc
In short: as §1

[32] = target: GalNAc(b1-3)GalNAc
In short: as §1

[33] = target: GalNAc(b1-3)GlcNAc
In short: as §1

[34] = target: GalNAc(b1-4)Gal(b1-4)Glc
In short: as §1

[35] = target: GalNAc(b1-4)GlcNAc
In short: as §1

[36] = target: GalNAc(b1-4)GlcNAc(b1-2)Man
In short: as §1

[37] = target: GalNAc(b1-4)GlcNAc(b1-2)Man(a1-3)[GalNAc(b1-4)GlcNAc(b1-2)Man(a1-6)]Man(b1-4)GlcNAc(b1-4)GlcNAc
In short: as §1

[38] = target: GalNAc(b1-4)GlcNAc(b1-3)GalNAc(b1-4)GlcNAc
In short: as §1

B1: Gal 9 (Homo sapiens), O00182 (protein)
chain: MAFSGSQAPYLSPAVPFSGTIQGGLQDGLQITVNGTVLSSSGTRFAVNFQTGFSGNDIAFHFNPRFEDGGYVVCNTRQNGSWGPEERKTHMPFQKGMPFDLCFLVQSSDFKVMVNGILFVQYFHRVPFHRVDTISVNGSVQLSYISFQNPRTVPVQPAFSTVPFSQPVCFPPRPRGRRQKPPGVWPANPAPITQTVIHTVQSAPGQMFSTPAIPPMMYPHPAYPMPFITTILGGLYPSKSILLSGTVLPSAQRFHINLCSGNHIAFHLNPRFDENAVVRNTQIDNSWGSEERSLPRKMPFVRGQSFSVWILCEAHCLKVAVDGQHLFEYYHRLRNLPTINRLEVGGDIQLTHVQT
- glycan array binding signal (z-score) [1]: -0.145
- glycan array binding signal (z-score) [2]: 0.996
- glycan array binding signal (z-score) [3]: -0.289
- glycan array binding signal (z-score) [4]: -0.132
- glycan array binding signal (z-score) [5]: 0.611
- glycan array binding signal (z-score) [6]: 1.32
- glycan array binding signal (z-score) [7]: 4.06
- glycan array binding signal (z-score) [8]: -0.335
- glycan array binding signal (z-score) [9]: -0.273
- glycan array binding signal (z-score) [10]: -0.295
- glycan array binding signal (z-score) [11]: -0.251
- glycan array binding signal (z-score) [12]: -0.316
- glycan array binding signal (z-score) [13]: -0.299
- glycan array binding signal (z-score) [14]: -0.308
- glycan array binding signal (z-score) [15]: -0.279
- glycan array binding signal (z-score) [16]: -0.312
- glycan array binding signal (z-score) [17]: -0.27
- glycan array binding signal (z-score) [18]: -0.317
- glycan array binding signal (z-score) [19]: -0.325
- glycan array binding signal (z-score) [20]: -0.32
- glycan array binding signal (z-score) [21]: -0.299
- glycan array binding signal (z-score) [22]: -0.317
- glycan array binding signal (z-score) [23]: -0.323
- glycan array binding signal (z-score) [24]: -0.318
- glycan array binding signal (z-score) [25]: -0.316
- glycan array binding signal (z-score) [26]: 0.672
- glycan array binding signal (z-score) [27]: 1.47
- glycan array binding signal (z-score) [28]: -0.315
- glycan array binding signal (z-score) [29]: -0.279
- glycan array binding signal (z-score) [30]: -0.036
- glycan array binding signal (z-score) [31]: -0.293
- glycan array binding signal (z-score) [32]: -0.316
- glycan array binding signal (z-score) [33]: -0.255
- glycan array binding signal (z-score) [34]: -0.3
- glycan array binding signal (z-score) [35]: -0.288
- glycan array binding signal (z-score) [36]: -0.303
- glycan array binding signal (z-score) [37]: -0.244
- glycan array binding signal (z-score) [38]: -0.316
